Hit rate of the full screen: of about 220,000 compounds, about 16,000 (7.3%) were called active. The inconclusive results got no clear call from the source; some entries with a clear call stand among them for comparison. Calls follow the shape of the dose curve; as a rule, active = well fitted inhibition curve with a large enough effect (not every such curve was filed as active); inconclusive = small, poorly fitted or top-dose-only effect, or another doubt; inactive = no such curve, though single readings can be large or run the other way. No potency is given beside an inconclusive call; the fits are too rough. A structure can be active in one record and inactive in another.
target: Aldehyde dehydrogenase 1A1 (Homo sapiens) (UniProt P00352); assay: qHTS Assay for Inhibitors of Aldehyde Dehydrogenase 1 (ALDH1A1); settings: Purified ALDH1A1, NADH fluorescence, propionaldehyde substrate; series mostly up to 75.3 µM;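 as to activity, negative = inhibition: plate controls were no enzyme wells and a reference inhibitor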
Potency is read from the fitted curve at half-maximal effect; tags tell the direction and shape of the fitted curve.

UniProt P00352, sequence (P00352 whole entry, looked up): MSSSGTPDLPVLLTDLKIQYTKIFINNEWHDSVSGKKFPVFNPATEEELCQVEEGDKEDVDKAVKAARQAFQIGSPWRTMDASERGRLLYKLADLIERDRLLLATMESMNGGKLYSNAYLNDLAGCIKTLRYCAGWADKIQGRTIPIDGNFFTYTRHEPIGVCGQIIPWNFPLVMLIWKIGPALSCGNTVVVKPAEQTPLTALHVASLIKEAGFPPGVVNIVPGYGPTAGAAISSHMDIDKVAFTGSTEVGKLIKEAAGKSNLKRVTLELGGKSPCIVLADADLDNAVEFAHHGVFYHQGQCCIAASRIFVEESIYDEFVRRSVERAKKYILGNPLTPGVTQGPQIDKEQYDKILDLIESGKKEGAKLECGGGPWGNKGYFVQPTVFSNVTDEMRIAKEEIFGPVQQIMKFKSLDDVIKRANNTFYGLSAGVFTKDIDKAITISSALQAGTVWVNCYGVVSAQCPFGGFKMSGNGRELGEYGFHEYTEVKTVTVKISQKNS

| SMILES | Potency | activity, negative = inhibition |
| --- | --- | --- |
| Cc1cc(C)c2c(=O)[nH]c(SCc3ccccc3)nc2n1 | inactive |  |
| Cc1ccc(Oc2ncccc2C(=O)NC2CCSC2=O)cc1 (stereo unspecified) | inactive |  |
| CCOC(=O)C1(CC2CCCCO2)CCN(Cc2nc(-c3cccs3)oc2C)CC1 (stereo unspecified) | inconclusive [inhibitor, single point] |  |
| Cc1cc(C)c(S(N)(=O)=O)c(C)c1-n1cnnn1 | inactive |  |
| CCCCCCCCCCCCCCCCO | inactive |  |
| COC(=O)CC1(C(=O)OC)Oc2ccc(Br)cc2C(=O)N1c1cc(Cl)c(Cl)cc1Cl (stereo unspecified) | inactive |  |
| Cc1ccc(C(=O)c2cc([N+](=O)[O-])ccc2N2CCN(C)CC2)cc1 | inconclusive [inhibitor, single point] |  |
| COC(=O)CSc1cc(C(=O)c2nccn2C)c2ccccc2n1 | inactive |  |
| O=C(CCc1ccc(S(=O)(=O)NCCc2ccccc2)cc1)NCc1ccc2c(c1)OCO2 | inconclusive [inhibitor, partial curve] |  |
| COc1ccc(/C=N/NC(=O)c2ccc(O)cc2O)cc1CSc1ccccn1 | inconclusive [inhibitor, partial curve] |  |
| O=C(c1ccc(N2CCN(C3CC(=O)N(Cc4cccs4)C3=O)CC2)cc1)c1cccnc1 (stereo unspecified) | active: 3.16 µM |  |
| CCOC(=O)c1c(C)[nH]c(-c2csc(N)n2)c1C | active: 11.2 µM |  |
| CCN1CCN(Cc2coc3ccc(C)cc3c2=O)CC1 | inconclusive [inhibitor, single point] |  |
| COCCCC1CCN(C(=O)CCc2nnc(CCCCc3ccccc3)o2)CC1 | inconclusive [inhibitor, partial curve] |  |
| Cc1ccc(-c2[nH]ncc2/C=C(\C#N)C(=O)NC2CCCCC2)cc1 | inconclusive [inhibitor, single point] |  |
| O=C(O)c1ccccc1N/N=C/c1c(Sc2nnnn2-c2ccccc2)nc2ccccn2c1=O | active: 2 µM |  |
| C/C(CC(=O)NCc1ccc(F)cc1)=N\NC(N)=S | inconclusive [inhibitor, single point] |  |
| COc1ccccc1CNC(=O)c1cc(-c2cccnc2)nc2ccccc12 | inconclusive [inhibitor, single point] |  |
| O=C(Cc1c(Cl)cccc1Cl)NCCc1ccc(Cl)cc1 | inactive |  |
| O=C1Nc2ccc([N+](=O)[O-])cc2C1=Nc1cccc(CO)c1 | inconclusive [inhibitor, partial curve, poor fit] |  |
| CCC1(C)Cc2c(sc(NC(=S)NC(=O)c3ccccc3)c2C#N)CO1 (stereo unspecified) | inconclusive [inhibitor, full curve] |  |
| Cc1c(Nc2scc(-c3ccccc3)[n+]2-c2ccccc2)c(=O)n(-c2ccccc2)n1C | inconclusive [inhibitor, single point] |  |
| O=C(NC1CCS(=O)(=O)C1)C1CCCCN1S(=O)(=O)c1ccc(Cl)cc1 (stereo unspecified) | inconclusive [inhibitor, single point] |  |
| Cc1ccc(NS(=O)(=O)c2ccc(Br)cc2)nc1 | inconclusive [inhibitor, single point] |  |
| CCOC(=O)C1C(=O)CC(C)(O)C(C(=O)OCC)C1c1ccc(C)s1 (stereo unspecified) | inconclusive [inhibitor, single point] |  |
| Cc1noc(C)c1-c1ccc2ncnc(Nc3ccccc3)c2c1 | inconclusive [inhibitor, single point] |  |

| SMILES | Potency | activity, negative = inhibition |
| --- | --- | --- |
| Cc1sc2ncn(CC(=O)OC(C)C)c(=O)c2c1C | inactive |  |
| COc1cc(NC(=S)NCc2ccco2)cc(OC)c1OC | inconclusive [inhibitor, single point] |  |
| CCCC(=O)N1CCCC(c2nc(-c3cccc(OC)c3)no2)C1 (stereo unspecified) | inactive |  |
| COc1ccc(-c2nc3ccccn3c2/N=C/c2ccc(OC)c(OC)c2)cc1O | inconclusive [inhibitor, single point] |  |
| O=C(COc1ccc(S(=O)(=O)NC2CCCCC2)cc1)NC1CCCCC1 | inactive |  |
| Cc1ccccc1C(=O)c1c[nH]c(C(=O)N=CN(C)C)c1 | inconclusive [inhibitor, partial curve] |  |
| CCOc1ccc(S(=O)(=O)Nc2ccc(Cl)cn2)c(C)c1C | inconclusive [inhibitor, single point] |  |
| CN(CCNC(=O)CN1C(=O)CSc2ccc(S(=O)(=O)N3CCCC3)cc21)Cc1ccccc1 | inactive |  |
| CCOC(=O)C1CCCN(C(=O)CNS(=O)(=O)c2ccc(Br)s2)C1 (stereo unspecified) | inconclusive [inhibitor, partial curve] |  |
| Cc1ccc(S(=O)(=O)NC(N)=NCCc2ccc(Cl)cc2)cc1 | inconclusive [inhibitor, partial curve] |  |
| CC1=C(C(=O)Nc2ccccc2)C(c2ccco2)NC(=S)N1 (stereo unspecified) | inconclusive [inhibitor, partial curve] |  |
| Cc1ccc(OCc2ccc(C(=O)Nc3nc4ccccc4n3C)o2)c([N+](=O)[O-])c1 | inactive |  |
| CC(C)Oc1ccc(-c2nc(NCC3CCCO3)c3ccccc3n2)cc1 (stereo unspecified) | inconclusive [inhibitor, single point] |  |
| CCCCOc1ccc([N+](=O)[O-])cc1C(=O)O | inactive |  |
| CCC(C)n1cnc2c(c1=O)c1nc3ccccc3nc1n2Cc1ccc2c(c1)OCO2 (stereo unspecified) | inconclusive [inhibitor, partial curve] |  |
| COc1ccc(NC(=O)CN(C)S(=O)(=O)c2cccc3cccnc23)cc1 | inconclusive [inhibitor, single point] |  |
| O=C(NCc1ccco1)O[C@@H]1C(=O)c2cc(Br)ccc2O[C@H]1c1ccc2c(c1)OCO2 | inconclusive [inhibitor, single point] |  |
| O=C(COC(=O)c1cc(-c2cccs2)nn1-c1ccccc1)Nc1ccc(Cl)c([N+](=O)[O-])c1 | inconclusive [inhibitor, single point] |  |
| Nc1nnc(-c2ccc(F)cc2)s1 | inactive |  |
| CCc1cc2c(NCC3CCCO3)ncnc2s1 (stereo unspecified) | inconclusive [inhibitor, single point] |  |
| CCN(CC)C(=O)CSc1nnc(COc2ccccc2)n1CC | inactive |  |
| N#C/C(=C/c1ccc(F)cc1)C(N)=S | active: 25.1 µM |  |
| COc1cccc(S(=O)(=O)NCc2ccc(C(=O)NCc3ccco3)cc2)c1 | active: 14.1 µM |  |
| O=C(Nc1c(C(=O)C2CC2)oc2ccccc12)c1ccc(Cl)cc1 | inconclusive [inhibitor, single point] |  |
| CCCCNS(=O)(=O)c1ccc2nc(-c3cccnc3)cc(C(=O)NCCCOCC)c2c1 | inactive |  |
| CC1CCCN(CCCNC(=O)CCn2nc(-c3ccccc3)ccc2=O)C1 (stereo unspecified) | active: 22.4 µM |  |

| SMILES | Potency | activity, negative = inhibition |
| --- | --- | --- |
| COc1ccc2nc(NC(=O)CSc3nc(C)cc(=O)[nH]3)sc2c1 | inconclusive [inhibitor, single point] |  |
| COc1cccc(C(c2c(C)[nH]n(-c3ccccc3)c2=O)c2c(C)[nH]n(-c3ccccc3)c2=O)c1OC | active: 3.55 µM |  |
| Cc1ccc(-c2nn(-c3ccccc3)cc2CO)o1 | inconclusive [inhibitor, partial curve] |  |
| O=C1C=CC2(OCCCO2)C(Br)=C1 |  | inactive: 4.2% [at 13.5 µM] |
| O=C(NNc1cc(Cl)cc(Cl)c1)C1CCC1 | inactive |  |
| CC(C)OC(=O)NCCOC(=O)Nc1cccc(Cl)c1 | inactive |  |
| COc1ccc2oc(C(=O)OCC(=O)c3ccc4c(c3)OCCO4)c(C)c2c1 | inconclusive [inhibitor, single point] |  |
| O=C(COc1ccc(Cl)cc1)Nc1cc(S(=O)(=O)N2CCCCC2)ccc1N1CCCCC1 | inactive |  |
| Cc1ccccc1NC(=S)N(Cc1ccco1)C(C)c1ccccn1 (stereo unspecified) | inactive |  |
| C=CCN1C(=O)/C(=C/c2ccsc2)SC1=S | inconclusive [inhibitor, full curve, poor fit] |  |
| C=CCn1c(-c2ccc(OC)cc2)nc2ccccc21 | inconclusive [inhibitor, partial curve] |  |
| O=C(c1cc2nc(C3CC3)cc(C(F)F)n2n1)N1CCOCC1 | inconclusive [inhibitor, partial curve] |  |
| COCCn1c(=O)c(-c2cccs2)nc2cnc(Nc3ccccc3)nc21 | inactive |  |
| Cc1ccccc1C(=O)Nc1ccc2c(C#N)c3nc4ccccc4nc3n2c1 | inconclusive [inhibitor, single point] |  |
| C[C@H]1COC(=O)[C@H](Cc2ccccc2)NC(=O)[C@@H](C)COC(=O)[C@H](Cc2ccccc2)NC1=O |  | inactive: 3.71% [at 13.5 µM] |
| C(=N\Nc1nc(-c2ccccc2)cs1)/c1cccnc1 | inactive |  |
| Cc1nn(Cc2ccccc2)c(C)c1N | inactive |  |
| COc1ccc(-c2cc(C(=O)O)nc3ccc4ccccc4c23)cc1OC | inconclusive [inhibitor, single point] |  |
| CCCc1ccc(OCC(=O)NNC(=S)NC(=O)c2ccco2)cc1 | inconclusive [inhibitor, single point] |  |
| O=C(Cn1c2c(sc1=O)C1c3ccccc3OCC1CS2)Nc1ccc(Cl)c(Cl)c1 (stereo unspecified) | active: 25.1 µM |  |
| O=C(NCc1ccc(Cl)cc1)c1ccc(Br)o1 | active: 12.6 µM |  |
| CCCCN(C)C(=O)C1CCN(CCCc2ccccc2)CC1 | inconclusive [inhibitor, single point] |  |
| O=C(CNCc1ccc(Cl)cc1)Nc1cccc(C(=O)O)c1 | inactive |  |
| Cc1ccccc1OCCOc1ccc([N+](=O)[O-])cc1/C=N/n1cnnc1 | inactive |  |

— PubChem BioAssay AID1030 (National Center for Advancing Translational Sciences (NCATS), 2008)
